Source: the supplement of paper PMC8728848
The other results are listed elsewhere or left out.

Legend:
Experiment in all cases: glycan array binding signal (z-score within array); higher = stronger binding
Conditions in all cases: glycan notation: IUPAC condensed, linker removed; mutation: Y228A
[1] = target: Fuc(a1-2)Gal(b1-4)GlcNAc(b1-3)Gal(b1-4)GlcNAc(b1-2)Man(a1-3)[Fuc(a1-2)Gal(b1-4)GlcNAc(b1-3)Gal(b1-4)GlcNAc(b1-2)Man(a1-6)]Man(b1-4)GlcNAc(b1-4)GlcNAc
Outline: (§1)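 The Consortium for Functional Glycomics database supplied 3228 glycan arrays, of which those lacking an available protein sequence were dropped. The binding signal, a within-array Z-score, was averaged across arrays of the same protein sequence and across linkers. Negative scores can be read as non-binding.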

[2] = target: Fuc(a1-2)Gal(b1-4)GlcNAc(b1-3)Gal(b1-4)GlcNAc(b1-3)Gal(b1-4)GlcNAc
Outline: as §1

[3] = target: Fuc(a1-2)Gal(b1-4)GlcNAc(b1-3)GalNAc
Outline: as §1

[4] = target: Fuc(a1-2)Gal(b1-4)GlcNAc(b1-3)[Fuc(a1-2)Gal(b1-4)GlcNAc(b1-6)]GalNAc
Outline: as §1

[5] = target: Fuc(a1-2)Gal(b1-4)GlcNAc(b1-3)[Fuc(a1-3)[Gal(b1-4)]GlcNAc(b1-6)]Gal(b1-4)Glc
Outline: as §1

[6] = target: Fuc(a1-2)Gal(b1-4)GlcNAc(b1-6)GalNAc
Outline: as §1

[7] = target: Fuc(a1-2)Gal(b1-4)GlcNAc6S
Outline: as §1

[8] = target: Fuc(a1-2)Gal(b1-4)[Fuc(a1-3)]GlcNAc
Outline: as §1

[9] = target: Fuc(a1-2)Gal(b1-4)[Fuc(a1-3)]GlcNAc(b1-2)Man(a1-3)[Fuc(a1-2)Gal(b1-4)[Fuc(a1-3)]GlcNAc(b1-2)Man(a1-6)]Man(b1-4)GlcNAc(b1-4)[Fuc(a1-6)]GlcNAc
Outline: as §1

[10] = target: Fuc(a1-2)Gal(b1-4)[Fuc(a1-3)]GlcNAc(b1-2)[Fuc(a1-2)Gal(b1-4)[Fuc(a1-3)]GlcNAc(b1-4)]Man(a1-3)[Fuc(a1-2)Gal(b1-4)[Fuc(a1-3)]GlcNAc(b1-2)Man(a1-6)]Man(b1-4)GlcNAc(b1-4)GlcNAc
Outline: as §1

[11] = target: Fuc(a1-2)Gal(b1-4)[Fuc(a1-3)]GlcNAc(b1-3)Gal(b1-4)[Fuc(a1-3)]GlcNAc
Outline: as §1

[12] = target: Fuc(a1-2)Gal(b1-4)[Fuc(a1-3)]GlcNAc(b1-3)Gal(b1-4)[Fuc(a1-3)]GlcNAc(b1-3)Gal(b1-4)[Fuc(a1-3)]GlcNAc
Outline: as §1

[13] = target: Fuc(a1-2)Gal(b1-4)[Fuc(a1-3)]GlcNAc(b1-3)GalNAc
Outline: as §1

[14] = target: Fuc(a1-2)Gal(b1-4)[Fuc(a1-3)]GlcNAc(b1-3)[Neu5Ac(a2-6)Gal(b1-4)GlcNAc(b1-6)]Gal(b1-4)Glc
Outline: as §1

[15] = target: Fuc(a1-2)Gal3S(b1-4)GlcNAc
Outline: as §1

[16] = target: Fuc(a1-2)Gal6S(b1-3)GlcNAc
Outline: as §1

[17] = target: Fuc(a1-2)Gal6S(b1-3)GlcNAc6S
Outline: as §1

Fuc(a1-2)Gal6S(b1-4)Glc = target: Fuc(a1-2)Gal6S(b1-4)Glc
Outline: as §1

[18] = target: Fuc(a1-2)Gal6S(b1-4)Glc6S
Outline: as §1

Fuc(a1-2)[Gal(a1-3)]Gal = target: Fuc(a1-2)[Gal(a1-3)]Gal
Outline: as §1

[19] = target: Fuc(a1-2)[Gal(a1-3)]Gal(b1-3)GalNAc
Outline: as §1

[20] = target: Fuc(a1-2)[Gal(a1-3)]Gal(b1-3)GalNAc(b1-3)Gal(a1-4)Gal(b1-4)Glc
Outline: as §1

[21] = target: Fuc(a1-2)[Gal(a1-3)]Gal(b1-3)GlcNAc
Outline: as §1

[22] = target: Fuc(a1-2)[Gal(a1-3)]Gal(b1-3)GlcNAc(b1-2)Man(a1-3)[Fuc(a1-2)[Gal(a1-3)]Gal(b1-3)GlcNAc(b1-2)Man(a1-6)]Man(b1-4)GlcNAc(b1-4)GlcNAc
Outline: as §1

[23] = target: Fuc(a1-2)[Gal(a1-3)]Gal(b1-3)GlcNAc(b1-2)Man(a1-3)[Fuc(a1-2)[Gal(a1-3)]Gal(b1-3)GlcNAc(b1-2)Man(a1-6)]Man(b1-4)GlcNAc(b1-4)[Fuc(a1-6)]GlcNAc
Outline: as §1

[24] = target: Fuc(a1-2)[Gal(a1-3)]Gal(b1-3)GlcNAc(b1-3)GalNAc
Outline: as §1

[25] = target: Fuc(a1-2)[Gal(a1-3)]Gal(b1-3)GlcNAc(b1-6)GalNAc
Outline: as §1

[26] = target: Fuc(a1-2)[Gal(a1-3)]Gal(b1-4)Glc
Outline: as §1

[27] = target: Fuc(a1-2)[Gal(a1-3)]Gal(b1-4)GlcNAc
Outline: as §1

[28] = target: Fuc(a1-2)[Gal(a1-3)]Gal(b1-4)GlcNAc(b1-2)Man
Outline: as §1

B1: Epa1-NP-mutant-Y228A (Candida glabrata), Q6VBJ0 (protein)
chain: MILNPALFLNKCVCIYTTLILLLLTNGGYATSSNDISLASKDPTTFPLGCSPDITTPKKGLSMELYSYDFRKKGSYPCWDAAYLDPNYPRTGYKSHRLLAKVDGVTGNINFYYHATKGCTPQLGHLPASYNYPKPLTMTNFTMLLYGYFRPKVTGFHTFTISADDLLFVNFGAGNAFDCCRRDSSADHFGNYQAYAIWGSKTAKDELTVHLDAGVYYPIRLFYNNREADGALSFTFKTESNENTVSDFSEYFFSLDDTEEGCPGLISYDSSCASVKTSKIIGIDYHTETPNENLVPITKTIYHLGIPCTGTTTTPLCGSGFYDPLANKCVTINTSSTSSVTKTTSHTTSKEVSFHSSISSQKTLIPKSIPSPYGPIKSQSIPTEMETSSEISSSEYAFSDVISTPSHSPYTKKHSSLNSSSYTSTVIHSLTSYSISQGIFSTSLSEQNITSKSSTDKFSTATSMSNNITQSSIIISQFSTNNENYTTTSMHTSSDKISTETLNNSISTTTSILFSNSSTILKNNTTIISSDKDTHYHPVNPTIVCSTNKTEIICASITQPSISNSNNHWSSSVLKFNSTTVRSTLPSSAGSNETSINVPFSSSTESNTSTSSTSTSNSKMVRSTLPSSAGSNETSISVPFSSSTESNTSTSSTSTSNSKMVRSTLPSSAGSNETSINVPFSSSTESNTSTSSTSTSNSKTVRSTPFSSAGIIMTSLSQRNNKSASSYASSNSKCYNTADSCRKVHSTPSYLLTSSYTSEGVDYDCSLVSTKLKINDTNCVNNKHTTKSCLKTSVTTTIPTLEIKTARKSSSNTIGLHSYPTSSPNKSISSAPIIGYISSFKTIKTASPSYQTSDLTTITTITSLNNPGSTAVENTHESNDKSRKTSSNDISSKHSVIKETKDAVESSNKSHQTNTLKCSSIIIASSSHNSYESLGGTTLTLTLSKVYSPQNNDTLPFLEISEVNPSRTVLPESSKMMQYLTSTEERNKTARNTIATNIVSISTFHFEGEGNAIRMGYTQLLLMLIGIIVMNIGT
B1 was tested, and the “glycan array binding signal (z-score)” value [1] was -0.174, the “glycan array binding signal (z-score)” value [2] was -0.226 and the “glycan array binding signal (z-score)” value [3] was -0.226. The “glycan array binding signal (z-score)” value [4] was -0.178, the “glycan array binding signal (z-score)” value [5] was -0.278 and the “glycan array binding signal (z-score)” value [6] was -0.209. For the same binder, the “glycan array binding signal (z-score)” value [7] was -0.027, the “glycan array binding signal (z-score)” value [8] was -0.298 and the “glycan array binding signal (z-score)” value [9] was -0.114. The “glycan array binding signal (z-score)” value [10] was -0.119, the “glycan array binding signal (z-score)” value [11] was -0.21 and the “glycan array binding signal (z-score)” value [12] was -0.183. The “glycan array binding signal (z-score)” value [13] was -0.103, the “glycan array binding signal (z-score)” value [14] was -0.173 and the “glycan array binding signal (z-score)” value [15] was -0.183. For the same binder, the “glycan array binding signal (z-score)” value [16] was -0.21, the “glycan array binding signal (z-score)” value [17] was -0.247 and the “glycan array binding signal (z-score)” value (Fuc(a1-2)Gal6S(b1-4)Glc) was -0.212. For the same binder, the “glycan array binding signal (z-score)” value [18] was -0.325, the “glycan array binding signal (z-score)” value (Fuc(a1-2)[Gal(a1-3)]Gal) was -0.267 and the “glycan array binding signal (z-score)” value [19] was -0.219. The “glycan array binding signal (z-score)” value [20] was -0.282, the “glycan array binding signal (z-score)” value [21] was -0.248 and the “glycan array binding signal (z-score)” value [22] was -0.265. For the same binder, the “glycan array binding signal (z-score)” value [23] was -0.31, the “glycan array binding signal (z-score)” value [24] was -0.119 and the “glycan array binding signal (z-score)” value [25] was -0.329. For the same binder, the “glycan array binding signal (z-score)” value [26] was -0.293, the “glycan array binding signal (z-score)” value [27] was -0.244 and the “glycan array binding signal (z-score)” value [28] was -0.292.
